This list was built around the results that the source calls inconclusive (neither active nor inactive); the mix of calls is not that of the screen. For some of these results: Potencies beside an inconclusive call are fits to weak or partial responses and may not hold up. The source made the active and inactive calls. Unless noted, calls come from the whole dose curve; as a rule, active = well fitted curve in the direction sought with a large enough effect; inconclusive = small, poorly fitted or top-dose-only effect, or another doubt; inactive = no such curve, though single readings can be large; an effect the other way counts as inactive or inconclusive.
Columns and labels:
[1] = Cell Viability - Jurkat (AID 426;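 active = dose-dependent loss of cell ATP signal giving a full or clear fitted curve, ranked by lower potency value; inconclusive = weak partial curve or response only at the top dose; inactive = no loss of viability signal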;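 note: potency is the fitted concentration of half-maximal effect; cells exposed to compound for 40 hours at 37 °C before ATP read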); settings: qHTS
Method in brief: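 Luminescent ATP read-out (CellTiter-Glo, 20 min at room temperature) after 40 hr compound exposure at 37 °C of Jurkat E6-1 cells, 5000/well. Decreased ATP taken as cytotoxicity; AC50 from standard Hill equation.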

[2] = Cell Viability - LYMP2-004 (AID 966); note: potency is the fitted concentration of half-maximal effect; nearly all actives have a fitted effect of over 65% in size
Method in brief: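 Luminescent ATP read-out (CellTiter-Glo, 30 min RT) after 24 hr compound exposure at 37 C; 2500 lymphoblastoid cells/well, complete medium. Decrease in ATP = cytotoxicity; AC50 from standard Hill model.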

[3] = Cell Viability - LYMP2-025 (AID 976); settings: LYMP2-025 lymphoblastoid cell viability; note: potency is the fitted concentration of half-maximal effect
Method in brief: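 CellTiter-Glo luminescence (cellular ATP) after 24 h compound exposure at 37 C; LYMP2-025 human lymphoblastoid cells, 2500/well, complete medium. Tetraoctylammonium bromide positive control. AC50 by Hill equation fit of qHTS concentration-response.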

[4] = Cell Viability - LYMP2-014 (AID 983);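 note: plate controls were DMSO only for no effect and 92 µM tetraoctylammonium bromide for full effect; nearly all actives have a fitted effect of over 50% in size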
Method in brief: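 2500 cells/well, 5 hr 37 C; cpd 24 hr 37 C, complete medium; CellTiter-Glo 30 min RT, luminescence; ATP loss = toxicity; AC50 via Hill eqn; tetraoctylammonium bromide positive control.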

[5] = molecular target: Peroxisome proliferator-activated receptor delta (Homo sapiens) (UniProt Q03181); experiment: qHTS assay for small molecule antagonists of peroxisome proliferator-activated receptor delta signaling (AID 588535; active = well fitted inhibition curve with a large enough effect in the signal ratio, with a control signal flat, not every such curve was filed as active; inconclusive = small, poorly fitted or top-dose-only effect, or effect the other way, or a change in a side signal; inactive = no such curve, though single readings can be large or run the other way; the % refers to the signal ratio); settings: HEK293T PPARd-UAS-bla, beta-lactamase FRET ratio, 18 h; activity change, negative = inhibition: at 76.7 µM (top of the series)
Method in brief: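 Beta-lactamase reporter read-out (405 nm excitation, 460/530 nm emission) after CCF4 loading for 2 hrs at RT. HEK293T PPAR-delta-UAS-bla cells, 2% charcoal/dextran FBS, compounds for 18 hrs at 37 C. Hill fit gave IC50 and efficacy.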

[6] = molecular target: Peroxisome proliferator-activated receptor gamma (Homo sapiens) (UniProt P37231); experiment: qHTS assay for small molecule antagonists of peroxisome proliferator-activated receptor gamma signaling (AID 588537; active = well fitted inhibition curve with a large enough effect in the signal ratio, with a control signal flat, not every such curve was filed as active; inconclusive = small, poorly fitted or top-dose-only effect, or effect the other way, or a change in a side signal; the % refers to the signal ratio;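 note: reporter cells co-stimulated with 50 nM rosiglitazone agonist during compound treatment; % of control where 0% means no effect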); settings: HEK293 PPARg-UAS-bla, beta-lactamase ratio, antagonist mode; activity, negative = inhibition: at 76.8 µM (top of the series)
Method in brief: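 Read-out: CCF4 fluorescence (ex 405, em 460/530 nm) after 2 h at RT. Cells were HEK293 carrying a UAS-bla reporter and treated 16 h at 37 C with compound plus rosiglitazone (50 nM final). Normalized to rosiglitazone and DMSO.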

[7] = molecular target: Thyroid hormone receptor beta (Homo sapiens) (UniProt P10828); experiment: qHTS assay for small molecule agonists of thyroid hormone receptor beta signaling (AID 588545; calls by dose curve); settings: TR-UAS-bla GripTite HEK 293, beta-lactamase ratio, agonist mode, 18 h; activation: at 76.7 µM, percent of T3 response, DMSO as zero
Method in brief: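 Cells (2500/well) were seeded, incubated 4 hrs at 37 C, dosed with a compound series, incubated 18 hrs, loaded with CCF4 dye for 2 hrs at RT, then read for fluorescence. Data were scaled between DMSO (0%) and 10 nM T3 (100%).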

[8] = qHTS assay for small molecule agonists of the antioxidant response element (ARE) signaling pathway (AID 651741; active = well fitted activation curve with a large enough effect in the signal ratio; inconclusive = small, poorly fitted or top-dose-only effect, or effect the other way, or a change in a side signal; the % refers to the signal ratio; note: % of control where 0% means no effect); settings: HepG2 ARE-bla reporter, beta-lactamase FRET ratio, 16 h; activation: at 96 µM (top of the series)
Method in brief: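 HepG2 ARE-bla reporter cells, 2,000/well; 5 h settle at 37 C/5% CO2; compound pin transfer (23 nL, DMSO); 16 h at 37 C; LiveBLAzer B/G FRET substrate, 2 h RT; fluorescence intensity read.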

[9] = qHTS assay to identify small molecules that stimulate interleukin-8 (IL-8) secretion (AID 651758; active = well fitted activation curve with a large enough effect in the signal ratio; inconclusive = small, poorly fitted or top-dose-only effect, or effect the other way, or a change in a side signal; the % refers to the signal ratio; note: 0% is about no effect); settings: HTRF ratio (665/615); activation: at 92.2 µM (top of the series)
Method in brief: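 Compounds are added to THP-1 cells (2000 per well) and left 16 hrs at 37 C. A labeled anti-IL-8 antibody pair is then added, and IL-8 secretion is measured by time-resolved FRET after 1-3 hrs at room temperature.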

[10] = qHTS assay for small molecule agonists of the antioxidant response element (ARE) signaling pathway measured by Nrf2-dependant transcriptional activity (AID 720636; active = well fitted curve in the direction sought with a large enough effect in the repeat runs; inconclusive = weak or mixed curves; inactive = no such curve, though single readings can be large; an effect the other way counts as inactive or inconclusive;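 note: HepG2 cells with an ARE-driven luciferase reporter; % of control where 0% means no effect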)
Method in brief: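 Attachment 6 hr at 37 C, then compound versus DMSO vehicle for 16 hr in ARE-luc HepG2 cells (1% dialyzed FBS); luminescence recorded 30 min after ONE-Glo addition at room temperature.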

[11] = qHTS of pediatric cancer cell lines to identify multiple opportunities for drug repurposing: Primary screen for SK-N-MC cells (AID 1347093); settings: SK-N-MC viability, CellTiter-Glo luminescence, 48 h; activity change, negative = cytotoxic: at 46 µM (top of the series);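 note: plate controls were DMSO neutral control for no effect and bortezomib for full effect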
Method in brief: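 Metabolically active cells were quantified by ATP-dependent luminescence (CellTiter-Glo, 15 min at room temperature) following 48 h treatment. Cells had been plated at 500-1,000 per well and settled for 5 h beforehand.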

[12] = qHTS of pediatric cancer cell lines to identify multiple opportunities for drug repurposing: Primary screen for SK-N-SH cells (AID 1347098);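 note: DMSO served as neutral control and bortezomib at 2.3 µM as positive control; % is set by controls: 0 for no effect and ±100 for the full control effect; nearly all actives have a fitted effect of over 65% in size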
Method in brief: (§1)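 Cells (500-1,000/well) rested 5 h, then received compounds for 48 h; metabolically active cells were measured by CellTiter-Glo luminescence. Final concentrations spanned up to 46 µM (MIPE, 11-point) or 0.59 nM-46 µM (NPC, 8-point) in primary screens, 11-point in follow-ups.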

[13] = qHTS of pediatric cancer cell lines to identify multiple opportunities for drug repurposing: Primary screen for BT-12 cells (AID 1347101);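 note: plate controls were DMSO for no effect and bortezomib positive control for full effect; nearly all actives have a fitted effect of over 25% in size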
Method in brief: as §1

[14] = qHTS of pediatric cancer cell lines to identify multiple opportunities for drug repurposing: Primary screen for OHS-50 cells (AID 1347103); settings: OHS-50 osteosarcoma viability, CellTiter-Glo luminescence, 48 h; activity change, negative = cytotoxic: at 57.3 µM (top of the series);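 note: plate controls were DMSO neutral control for no effect and bortezomib positive control for full effect; nearly all actives have a fitted effect of over 40% in size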
Method in brief: as §1

[15] = qHTS of pediatric cancer cell lines to identify multiple opportunities for drug repurposing: Primary screen for RD cells (AID 1347104);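 note: plate controls were DMSO for no effect and bortezomib for full effect; nearly all actives have a fitted effect of over 55% in size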
Method in brief: (§2)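 Phenotypic viability qHTS, 48 h compound exposure, CellTiter-Glo luminescence read-out; multi-concentration dosing so that potency and efficacy derive directly from the primary screen's curves.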

[16] = Primary qHTS for small molecule stabilizers of the endoplasmic reticulum resident proteome: Secreted ER Calcium Modulated Protein (SERCaMP) assay (AID 1508630); settings: SH-SY5Y GLuc-SERCaMP (Gaussia luciferase released on ER calcium loss) secretion, thapsigargin, luminescence; activity change, negative = inhibition: at 38.4 µM (top of the series) unless noted; note: potency is the fitted concentration of half-maximal effect
Method in brief: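 The SH-SY5Y reporter protocol was run at 3 concentrations up to 38.3 uM (primary) or 11 concentrations (follow-up): 16 h compound, 100 nM thapsigargin for 4 h, then extracellular luciferase luminescence.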

[17] = Primary qHTS for inhibitors of nuclear receptor binding SET domain protein 2 (NSD2) in an isogenic RCH-ACV NSD2 p.E1099K mutant (9B) (AID 1645876); settings: activity change, negative = viability loss: at 44.9 µM (top of the series) unless noted; note: % is set by controls: 0 for no effect and ±100 for the full control effect; nearly all actives have a fitted effect of over 70% in size
[18] = Primary qHTS for inhibitors of nuclear receptor binding SET domain protein 2 (NSD2) in an RCH-ACV wild type WT cells (2C) (AID 1645877); settings: activity change, negative = cell killing: at 44.9 µM (top of the series) unless noted; note: % is set by controls: 0 for no effect and ±100 for the full control effect; nearly all actives have a fitted effect of over 70% in size
[19] = HepG2 viability counterscreen (readout 1: protease activity) against the NCATS DSHEA and TCM libraries (AID 1794841);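 note: potency is the fitted concentration of half-maximal effect; cells exposed to compounds for about 24 h before the protease read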
Method in brief: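 1,000 HepG2 cells/well, 4 h attach; compounds ~24 h, 37C/5% CO2. Readout 1: GF-AFC 25 uM final, 30 min, fluorescence 380/510 nm. Readout 2: CellTiter-Glo, 30 min RT, luminescence.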

[20] = molecular target: Cytochrome P450 2C9 (Homo sapiens) (UniProt P11712); experiment: qHTS for inhibitors of CYP2C9 against the NCATS DSHEA and TCM libraries (AID 1919973);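 note: luminogenic pro-luciferin CYP2C9 substrate turned into luciferin with NADPH regeneration; % is set by controls: 0 for no effect and ±100 for the full control effect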
Method in brief: (§3)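 Substances were tested against enzyme with a pro-luciferin substrate; minus-enzyme wells served as background. After NADPH-initiated oxidation (30-45 min, RT), light was generated with P450-Glo reagent.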

[21] = molecular target: Cytochrome P450 2C19 (Homo sapiens) (UniProt P33261); experiment: qHTS for inhibitors of CYP2C19 against the NCATS DSHEA and TCM libraries (AID 1919974);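 note: luminescence from luciferin released by CYP2C19 oxidation of a pro-luciferin substrate; % is set by controls: 0 for no effect and ±100 for the full control effect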
Method in brief: as §3

SKOV3 = experiment: Primary qHTS to identify gynecologic anti-cancer compounds using libraries of approved drugs and bioactive compounds (AID 1345084); settings: Gynecologic cancer cell panel viability, ATPlite luminescence, 48 h; series mostly up to 57.5 µM; note: nearly all actives have a fitted effect of over 55% in size; note: potency is the fitted concentration of half-maximal effect
Method in brief: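 Luminescence from the ATPlite ATP-monitoring reagent indicates viable cell number; lower signal means cytotoxicity. Cells received compound 16 h after seeding and were exposed for 48 h across five concentrations.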

[22] = Drug repurposing screens with cells derived from glioblastoma tumor samples (AID 1345199); settings: GBM patient neurospheres viability, ATP luminescence, 48 h; Potency: tumour line A unless noted; activity, negative = cell killing: at 46 µM (top of the series), tumour line A unless noted; note: % is set by controls: 0 for no effect and ±100 for the full control effect; nearly all actives have a fitted effect of over 40% in size
Method in brief: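 Primary testing used CD133+ neurospheres from four GBM patients, seven concentrations, 48 h exposure and ATP-based viability; confirmation added three slower-growing patient lines.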

CP297 = experiment: qHTS profiling for inhibitors of Plasmodium falciparum proliferation (AID 504749);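 note: 0% = DMSO vehicle and full inhibition = artemisinin control; nearly all actives have a fitted effect of over 60% in size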; settings: P. falciparum in erythrocytes, SYBR Green DNA, 72 h; activity, negative = inhibition: at 28.7 µM (top of the series)
Method in brief: (§4)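 SYBR Green fluorescence (ex 485 nm, em 535 nm) reports parasite DNA after 72 h compound exposure of infected red cells at 0.3% parasitemia, 2.5% hematocrit; signal normalized to 0.29 uM artemisinin and vehicle wells.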

DIV17 = experiment: as above; settings: P. falciparum in erythrocytes, SYBR Green DNA, 72 h; activity, negative = inhibition: at 28.7 µM (top of the series)
Method in brief: as §4

SC27B = experiment: as above; settings: P. falciparum in erythrocytes, SYBR Green DNA, 72 h; series mostly up to 28.7 µM
Method in brief: as §4

TAB113 = experiment: as above; settings: P. falciparum in erythrocytes, SYBR Green DNA, 72 h; series mostly up to 28.7 µM
Method in brief: as §4

[23] = qHTS of pediatric cancer cell lines to identify multiple opportunities for drug repurposing: Primary screen for Saos-2 cells (AID 1347097); settings: Saos-2 viability, CellTiter-Glo ATP luminescence, 48 h; activity change, negative = cytotoxic: at 46 µM (top of the series); note: % is set by controls: 0 for no effect and ±100 for the full control effect; nearly all actives have a fitted effect of over 40% in size
Method in brief: as §2

[24] = qHTS of pediatric cancer cell lines to identify multiple opportunities for drug repurposing: Primary screen for NB1643 cells (AID 1347099); settings: NB1643 neuroblastoma viability, CellTiter-Glo luminescence, 48 h; activity change, negative = cytotoxic: at 46 µM (top of the series);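 note: plate controls were DMSO neutral control for no effect and bortezomib positive control for full effect; nearly all actives have a fitted effect of over 50% in size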
Method in brief: as §2

[25] = molecular target: Cytochrome P450 2D6 (Homo sapiens) (UniProt P10635); experiment: Cytochrome P450 family 2 subfamily D member 6 (CYP2D6) small molecule antagonists: luciferase biochemical (cell-free) qHTS assay (AID 1645840; active = well fitted curve in the direction sought with a large enough effect in the repeat runs; inconclusive = weak or mixed curves; inactive = no such curve, though single readings can be large; an effect the other way counts as inactive or inconclusive; note: potency is the fitted concentration of half-maximal effect; nearly all actives have a fitted effect of over 55% in size)
Method in brief: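 P450-Glo CYP2D6 system: proluciferin substrate converted by enzyme to luciferin, read by luminescence proportional to activity. Enzyme-substrate mix with compound 10 min at room temperature, then NADPH regeneration 1 h before detection reagent.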

[26] = molecular target: Cytochrome P450 2C9 (Homo sapiens) (UniProt P11712); experiment: Cytochrome P450 family 2 subfamily C member 9 (CYP2C9) small molecule antagonists: luciferase biochemical (cell-free) qHTS assay (AID 1645842; active = well fitted curve in the direction sought with a large enough effect in the repeat runs; inconclusive = weak or mixed curves; inactive = no such curve, though single readings can be large; an effect the other way counts as inactive or inconclusive; note: potency is the fitted concentration of half-maximal effect; nearly all actives have a fitted effect of over 55% in size)
Method in brief: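 P450-Glo CYP2C9 system: proluciferin substrate with enzyme in mix containing 0.4% BSA, 10 min at room temperature, then NADPH regeneration solution added and incubated 1 h at 37C. Detection reagent stopped reaction; luminescence read after 20 min as RLU.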
Tags give direction and shape of the fitted curve.

Sequence of UniProt P11712 (P11712 whole entry, looked up): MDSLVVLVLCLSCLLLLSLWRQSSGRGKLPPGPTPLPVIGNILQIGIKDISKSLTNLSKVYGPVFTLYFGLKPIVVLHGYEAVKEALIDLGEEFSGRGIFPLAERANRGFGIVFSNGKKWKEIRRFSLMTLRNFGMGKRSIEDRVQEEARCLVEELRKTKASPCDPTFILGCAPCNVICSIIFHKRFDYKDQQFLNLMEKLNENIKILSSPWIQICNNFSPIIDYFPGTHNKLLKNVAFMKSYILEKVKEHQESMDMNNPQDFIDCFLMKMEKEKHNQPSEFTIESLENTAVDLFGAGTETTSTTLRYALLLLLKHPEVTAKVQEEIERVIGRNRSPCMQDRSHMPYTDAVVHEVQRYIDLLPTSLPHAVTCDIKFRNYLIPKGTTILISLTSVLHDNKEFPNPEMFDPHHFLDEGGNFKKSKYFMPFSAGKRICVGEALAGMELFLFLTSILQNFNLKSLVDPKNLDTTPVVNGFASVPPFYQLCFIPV
Sequence of UniProt P10828 (P10828 whole entry, looked up): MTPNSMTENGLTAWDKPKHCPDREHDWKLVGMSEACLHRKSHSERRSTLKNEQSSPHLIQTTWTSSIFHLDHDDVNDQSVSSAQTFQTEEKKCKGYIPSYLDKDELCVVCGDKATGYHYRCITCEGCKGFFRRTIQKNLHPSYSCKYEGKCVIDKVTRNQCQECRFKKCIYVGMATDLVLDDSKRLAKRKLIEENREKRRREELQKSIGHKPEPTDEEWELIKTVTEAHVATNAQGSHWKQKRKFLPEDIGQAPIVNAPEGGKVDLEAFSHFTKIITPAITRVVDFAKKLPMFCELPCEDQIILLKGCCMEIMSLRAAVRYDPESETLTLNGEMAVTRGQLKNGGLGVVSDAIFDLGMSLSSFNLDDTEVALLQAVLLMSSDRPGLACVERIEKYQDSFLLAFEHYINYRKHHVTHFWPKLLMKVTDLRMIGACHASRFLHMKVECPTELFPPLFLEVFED
Sequence of UniProt P10635 (P10635 whole entry, looked up): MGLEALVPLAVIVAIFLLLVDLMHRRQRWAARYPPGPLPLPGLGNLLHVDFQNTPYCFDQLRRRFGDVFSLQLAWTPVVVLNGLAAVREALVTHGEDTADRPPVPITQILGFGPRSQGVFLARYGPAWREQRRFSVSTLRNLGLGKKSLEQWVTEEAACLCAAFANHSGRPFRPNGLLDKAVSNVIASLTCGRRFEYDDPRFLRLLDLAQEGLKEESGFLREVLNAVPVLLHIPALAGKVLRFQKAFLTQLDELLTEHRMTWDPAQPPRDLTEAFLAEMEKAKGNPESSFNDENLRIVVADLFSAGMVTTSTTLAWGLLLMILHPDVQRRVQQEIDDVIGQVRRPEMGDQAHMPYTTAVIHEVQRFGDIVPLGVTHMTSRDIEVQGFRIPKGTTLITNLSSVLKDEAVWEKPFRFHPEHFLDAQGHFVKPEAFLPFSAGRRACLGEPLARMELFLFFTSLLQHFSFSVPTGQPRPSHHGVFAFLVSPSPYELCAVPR
Sequence of UniProt Q03181 (Q03181 whole entry, looked up): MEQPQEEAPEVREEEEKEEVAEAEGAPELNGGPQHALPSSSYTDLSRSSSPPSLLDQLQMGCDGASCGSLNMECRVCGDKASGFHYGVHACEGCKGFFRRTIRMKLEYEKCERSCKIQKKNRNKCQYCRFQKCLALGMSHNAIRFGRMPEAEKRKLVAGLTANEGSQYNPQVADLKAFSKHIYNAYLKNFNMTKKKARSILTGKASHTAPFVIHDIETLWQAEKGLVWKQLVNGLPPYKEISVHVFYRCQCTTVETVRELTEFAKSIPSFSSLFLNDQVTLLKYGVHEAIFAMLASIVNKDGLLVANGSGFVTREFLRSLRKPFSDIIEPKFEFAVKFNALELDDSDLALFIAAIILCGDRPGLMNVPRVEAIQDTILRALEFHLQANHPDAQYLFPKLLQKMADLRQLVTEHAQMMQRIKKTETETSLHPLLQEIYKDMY
Sequence of UniProt P33261 (P33261 whole entry, looked up): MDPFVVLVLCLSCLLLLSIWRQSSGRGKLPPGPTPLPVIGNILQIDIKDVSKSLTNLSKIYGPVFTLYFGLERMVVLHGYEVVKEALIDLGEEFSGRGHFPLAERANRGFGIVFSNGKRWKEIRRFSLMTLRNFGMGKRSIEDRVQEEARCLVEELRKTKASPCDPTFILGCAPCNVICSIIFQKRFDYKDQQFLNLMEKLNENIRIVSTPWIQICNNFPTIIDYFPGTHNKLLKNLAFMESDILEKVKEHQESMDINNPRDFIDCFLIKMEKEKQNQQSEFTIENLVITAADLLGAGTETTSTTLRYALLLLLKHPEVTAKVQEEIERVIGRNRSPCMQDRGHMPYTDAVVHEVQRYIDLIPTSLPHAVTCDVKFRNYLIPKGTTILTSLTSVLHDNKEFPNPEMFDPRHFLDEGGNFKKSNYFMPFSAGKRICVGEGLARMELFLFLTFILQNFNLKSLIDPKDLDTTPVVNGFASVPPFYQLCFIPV
Sequence of UniProt P37231 (P37231 whole entry, looked up): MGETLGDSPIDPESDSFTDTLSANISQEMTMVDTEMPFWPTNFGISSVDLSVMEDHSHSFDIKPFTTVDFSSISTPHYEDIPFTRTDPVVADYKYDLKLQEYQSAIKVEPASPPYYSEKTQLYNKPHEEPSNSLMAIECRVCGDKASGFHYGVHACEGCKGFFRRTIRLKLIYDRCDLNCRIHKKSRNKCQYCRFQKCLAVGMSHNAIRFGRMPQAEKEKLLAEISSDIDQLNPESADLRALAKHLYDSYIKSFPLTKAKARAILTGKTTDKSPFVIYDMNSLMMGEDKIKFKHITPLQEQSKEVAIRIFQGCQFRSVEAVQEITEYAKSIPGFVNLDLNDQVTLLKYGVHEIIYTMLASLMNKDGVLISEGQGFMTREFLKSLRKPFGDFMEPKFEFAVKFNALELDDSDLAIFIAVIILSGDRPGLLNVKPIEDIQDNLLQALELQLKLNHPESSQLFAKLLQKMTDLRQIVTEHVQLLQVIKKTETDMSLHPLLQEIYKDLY

CC12CCC(CC1)C(C)(C)O2
inconclusive: Potency [2] 63.1 µM [cytotoxic, partial curve, poor fit] | Potency [3] 7.94 µM [cytotoxic, partial curve, poor fit] | activation [7] -16.2% | activation [9] 13.6% | Potency [16] 28.2 µM [inhibitor, single point] | Potency [19] 12.6 µM [inhibitor, full curve, poor fit] | activity, negative = cell killing [22] -13.3% [inhibitor]
inactive: Potency [1] > 92 µM | Potency [4] | Potency [5] | Potency [6] | Potency [8] | Potency [10] | Potency [11] | Potency [12] | Potency [13] | Potency [14] | Potency [15] | Potency [17] | Potency [18] | Potency [20] | Potency [21] | Potency (SKOV3) | Potency (CP297) | Potency (DIV17) | Potency (SC27B) | Potency (TAB113)

CC(NN)c1ccccc1 (centres undefined)
inconclusive: Potency [16] 14.1 µM [inhibitor, partial curve] | Potency [25] 12 µM [inhibitor, partial curve] | Potency [26] 12 µM [inhibitor, partial curve] | Potency (SKOV3) 11.2 µM [rising, single point]
inactive: Potency [23] | Potency [24] | Potency [22]

— PubChem BioAssay (NCATS)
